Data reported in PubChem BioAssay AID540267 (National Center for Advancing Translational Sciences (NCATS), 2011).
Several values for one entry are separate records, joined by “and”; a condition that tells them apart may be missing. Equal values may be shown once. About 530 (0.16%) of roughly 340,000 compounds were called active. This list was built around the results that the source calls inconclusive (neither active nor inactive); the mix of calls is not that of the screen. No stated cut-off is given here; in the data, active means activity change below about -80%; inconclusive means between about -30% and that limit; inactive means weaker than that.

Assay: Small Molecules that selectively kill Giardia lamblia: qHTS;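 further: parasites exposed to compound for two days anaerobically before the ATP read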
Settings: Giardia lamblia trophozoite viability; at 7.66 µM; active compounds read low
Summary of the method: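 Anaerobic 48 hrs incubation at 37 deg C of 100 trophozoites/well with test compounds; ATPLite 1-Step luminescence, 15-30 min RT, reports cellular ATP as viability.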
On the % scale 0 is the no-effect control and ±100 the full control effect.

Structure (SMILES)	activity change
Cc1cc(/C=C2\Cc3ccccc3C2=O)c(C)n1-c1ccccc1	inconclusive: -31% [inhibitor]
CCOC(=O)C(C)Oc1ccc(=O)n(-c2ccccc2)n1 (stereo not drawn)	inconclusive: -32% [inhibitor]
COc1ccc2nc(N3CCN(C(=O)c4ccc([N+](=O)[O-])o4)CC3)sc2c1	active: -98.8%
Cc1ccc(-c2nnc(-c3ccc4ccccc4c3)o2)cc1	inconclusive: -34.7% [inhibitor]
CCOc1ccc(C(=S)N2CCN(C)CC2)cc1	inconclusive: -30.9% [inhibitor]
O=C(N/N=C/c1ccncc1)NC12CC3CC(CC(C3)C1)C2	inconclusive: -31.7% [inhibitor]
CCCCC(CC)C(=O)Nc1ncc([N+](=O)[O-])s1 (stereo not drawn)	active: -91.3%
Cc1ccc2c(Cn3ccnc3)cc(=O)oc2c1C	inconclusive: -40.9% [inhibitor]
COCCNc1nc(N2CCCCC2)c2cnn(C)c2n1	inactive: -12.9%
CC(OC(=O)c1ccccc1NCCO)C(=O)Nc1ccnn1C(C)C (stereo not drawn)	inconclusive: -36.1% [inhibitor]
O=C1C(Cl)=C(NCCCO)C(=O)c2ccccc21	inconclusive: -31.3% [inhibitor]
c1ccc(NCc2nc3ccccc3n2CCOc2ccccc2)cc1	inconclusive: -30.1% [inhibitor]
O=C(c1cc2nc(-c3ccccc3)cc(C(F)(F)F)n2n1)N1CCCC1	inconclusive: -35.6% [inhibitor]
COc1cccc(-c2nn(-c3ccccc3)cc2C(=O)n2nnc3ccccc32)c1	inactive: 7.96%
CCOC(=O)CSc1nc2sc(C)c(C)c2c(=O)[nH]1	inactive: -0.839%
CCOc1cc(C2C(C#N)=C(N)OC(C)=C2C(C)=O)cc(Br)c1O (stereo not drawn)	inactive: -4.73%
COc1ccccc1-c1ocnc1C(=O)N1CCN(C(=O)C(c2ccccc2)c2ccccc2)CC1	inconclusive: -43.4% [inhibitor]
COc1cccc(N2CCN(C(=O)C3CCCN(S(=O)(=O)c4cnc[nH]4)C3)CC2)c1 (stereo not drawn)	inconclusive: -40.9% [inhibitor]
O=C(Cn1c(=O)[nH]c2ccccc2c1=O)N1CCN(c2cccc(Cl)c2)CC1	inactive: -1.84%
COc1ccc(C2=NS(=O)(=O)N(C)C(C(=O)NC(C)c3ccccc3)=C2)cc1 (stereo not drawn)	inconclusive: -37.7% [inhibitor]
O=C1N/C(=N\N=C\c2cccs2)SC1Cc1ccc(Cl)c(Cl)c1 (stereo not drawn)	inactive: -5.4%
COc1ccc(C(=O)COC(=O)c2ccccc2NS(=O)(=O)c2ccc(O)c([N+](=O)[O-])c2)cc1	inconclusive: -49.7% [inhibitor]
Cc1cc([N+](=O)[O-])ccc1NC(=O)C[n+]1ccc(N(C)C)cc1	inactive: -3.6%
CN1CCN(c2ccc(NC(=O)c3ccc(-c4ccc(Br)cc4)o3)cc2)CC1	inactive: 5.73%
CC(=O)Nc1ccc(/C=C/c2ccc3cccc([N+](=O)[O-])c3n2)cc1	inconclusive: -33.4% [inhibitor]
Cc1[nH]c2ccc(-c3nnc(SCC(=O)c4ccc(F)cc4)o3)cc2c1C	inactive: -1.71%

Structure (SMILES)	activity change
O=[N+]([O-])c1ccc(N2CCN(c3ccc(F)cc3)CC2)nc1	inconclusive: -37.4% [inhibitor]
O=[N+]([O-])c1ccc(CN2CCN(c3ccc(Cl)cc3)CC2)o1	active: -93.7%
COC(=O)c1cc(S(=O)(=O)Nc2ccc(C)cn2)c[nH]1	inconclusive: -32.5% [inhibitor]
COC(=O)c1ccc(NC(=O)C(=O)c2c[nH]c3ccccc23)cc1	inconclusive: -33% [inhibitor]
CC(C)(C)c1ccccc1NC(=O)c1ccc(-n2cncn2)c([N+](=O)[O-])c1	inconclusive: -36.3% [inhibitor]
COc1ccc(C(=O)Nc2cc(=O)n(C)c(=O)n2C)cc1	inconclusive: -35% [inhibitor]
O=C(CSc1ccc(Cl)cc1)N1CCN(c2ccc([N+](=O)[O-])cc2Cl)CC1	inactive: -7.61%
O=C(COC(=O)c1cc(Cl)ccc1Cl)NC1CCCC1	inconclusive: -39.3% [inhibitor]
CCN1CCN(c2ccc(S(=O)(=O)N3CCCCC3)cc2NC(=O)Cc2ccc(Cl)c(Cl)c2)CC1	inactive: 4.96%
CCCSc1ccc([C@@H]2[C@@H]3C(=O)N(C)C(=O)[C@@H]3[C@]3(C(=O)OC)CCCCN23)cc1OC	inactive: -8.84%
CCN(CC)c1cc(C)c2cc(NC(=O)c3ccccc3F)ccc2n1	inactive: 6.97%
Cc1ccccc1C(=O)NNC(=S)NC(=O)c1cccnc1	inactive: -4.22%
CC1=NN(C(N)=S)C(=O)C1N=Nc1ccc(O)cc1 (stereo not drawn)	inactive: -4.72%
COc1ccc(C(=O)Nc2ccc(C)cn2)c(OC)c1	inconclusive: -74.1% [inhibitor]
CCOc1ccc(Oc2ccc(S(=O)(=O)N3CCOCC3)cc2N)cc1	inconclusive: -32.7% [inhibitor]
O=C(CN1CCN(C(=O)C2CCN(C(=O)/C=C/c3ccccc3)CC2)CC1)Nc1ccc(F)cc1	inconclusive: -32.9% [inhibitor]
Cc1cc(C)c(NC(=O)CNC(=O)COC(=O)C2=COCCO2)c(C)c1	inconclusive: -36.7% [inhibitor]
O=C(CSc1nccn1-c1ccc(F)cc1)NCc1ccc(F)cc1	inconclusive: -30.1% [inhibitor]
OCCN1CCN(c2nc(NCc3ccco3)c3ccccc3n2)CC1	inactive: 18.3%
Cc1c(Cl)cccc1NC(=S)N1CCC(C(N)=O)(N2CCCCC2)CC1	inconclusive: -42.9% [inhibitor]
COc1ccc(NC(C)C(=O)Nc2cccc(S(=O)(=O)N3CCOCC3)c2)cc1OC (stereo not drawn)	inactive: 33.7%
c1coc(-c2nnc3sc(Cc4cccs4)nn23)c1	inactive: -4.16%
COc1cccc(NC(=O)c2ccc3c(c2)N(C)CCS3)c1	inconclusive: -32.6% [inhibitor]
Cc1ccc(-n2nnnc2SCC(=O)NNC(=O)c2ccc([N+](=O)[O-])cc2)cc1	inconclusive: -39.2% [inhibitor]
Cc1c(/N=C(\[O-])Nc2ccc(Br)cc2)sn[n+]1C	inactive: 0.591%
Cc1ccc(NC(=O)COc2cccnc2[N+](=O)[O-])cc1S(=O)(=O)N1CCCCC1	inconclusive: -46.8% [inhibitor]

Structure (SMILES)	activity change
COc1ccc(OC)c(CN2CCN(C(=O)CCNC(=O)c3ccc(Br)cc3)CC2)c1	inactive: 13.8%
Cc1ccnc(NS(=O)(=O)c2ccc(NC(=O)c3ccc([N+](=O)[O-])s3)cc2)n1	inactive: 5.73%
O=C(NC1CCN(Cc2ccccc2)CC1)c1c(Cl)cccc1Cl	inconclusive: -35.7% [inhibitor]
CC(Nc1ccc(Cl)cc1)C(=O)NN (stereo not drawn)	inconclusive: -32% [inhibitor]
O=C(COc1ccccc1Cl)NC(=S)Nc1ccccc1N1CCCC1	inconclusive: -42.2% [inhibitor]
CCCS(=O)(=O)c1nc(S(=O)(=O)c2ccc(C)cc2)c(NCCCN(C)C)s1	inconclusive: -31.6% [inhibitor]
O=C1NC(=S)S/C1=C\c1cccc([N+](=O)[O-])c1	inactive: -10.2%
O=C(CCN1C(=O)c2ccccc2C1=O)Nc1ccccc1C(F)(F)F	inconclusive: -51.7% [inhibitor]
Cc1ccc(N(C)S(=O)(=O)c2cccc(C(=O)N(C)Cc3cnn(-c4ccccc4)c3)c2)cc1	inactive: -9.42%
Cc1ccc(S(=O)(=O)N2CCCN(S(=O)(=O)c3ccc4c(c3)OCCO4)CC2)cc1	inactive: 3.65% and inactive: 0.964%
O=[N+]([O-])c1ncccc1OCc1ccc(Cl)c(Cl)c1	inconclusive: -30.2% [inhibitor]
CCOC1=NN(c2ncc(C(F)(F)F)cc2Cl)C(=O)/C1=C/N(C)C	inconclusive: -35.6% [inhibitor]
CCc1n(CC(O)COCc2ccccc2)c2ccccc2[n+]1C (stereo not drawn)	inconclusive: -33.7% [inhibitor]
CCOc1ccc(-c2cc(C(=O)N3CCN(c4ccccn4)CC3)c3ccccc3n2)cc1	inconclusive: -68% [inhibitor]
Cc1ccc(/C=N/NC(=O)Cc2cccs2)o1	inconclusive: -31.4% [inhibitor]
O=C(c1ccco1)c1coc2c1cc(O)c1ccccc12	inconclusive: -31.6% [inhibitor]
Nc1nc(CSC(=S)N2CCN(c3ccccc3)CC2)nc(Nc2ccccc2)n1	inactive: -8.51%
COc1cccc(NC(=S)NNC(=O)CCn2cc([N+](=O)[O-])cn2)c1	inconclusive: -36.1% [inhibitor]
Cc1ccc(-n2cc(CN(C)Cc3nccn3C)c(-c3ccc(F)cc3)n2)cc1	inactive: 8.56%
CN(C)n1cccc1/C=C(\C#N)S(=O)(=O)c1ccc(Cl)cc1	inactive: 2.05%
O=C(CN(C1CCCCC1)S(=O)(=O)c1ccc(F)cc1)NCC1CCCO1 (stereo not drawn)	active: -84.1%
COc1cc(NC(=O)N2c3ccccc3Sc3ccccc32)c(C(=O)O)cc1OC	inconclusive: -39.6% [inhibitor]
Cc1ccnc(Nc2nc3ccccc3o2)n1	inconclusive: -39.9% [inhibitor]
COc1ccc(N=C2SC(CC(=O)Nc3cccc(Cl)c3)C(=O)N2Cc2ccco2)cc1 (stereo not drawn)	inconclusive: -31.1% [inhibitor]
Cc1ccc(-c2nc(NC(=O)c3nn(C)cc3[N+](=O)[O-])sc2C)cc1	inconclusive: -39.8% [inhibitor]
CC(C)(C)OC(=O)C[C@H]1C/C=C\C[C@@H](CC(=O)N[C@H](CO)Cc2ccccc2)C(=O)N2CCC[C@H]2COC1=O	inactive: -18%
